Results published in US20120076787A1 (published 2012).

Columns and labels:
[1] = biological target: T1, recombinant human VEGFR2 Fc Chimera (R&D Systems, 357-KD-050) (human, UniProt P35968 20-764); experiment: bridging ELISA: coated VEGFR2 Fc, titrated BPC1821, detection with biotinylated B7-1 Fc and ExtrAvidin peroxidase; x axis is dilution factor
T1 construct: Bought reagent; also called VEGF receptor; Fc part of the bought chimera not given

[2] = biological target: T2, Recombinant human B7-1 Fc Chimera (RnD Systems, 140-B1-100), biotinylated (human, UniProt P33681 35-242, biotinylated (ECL biotinylation module, GE Healthcare, at a quarter of the kit recommended level)); experiment: bridging ELISA: coated VEGFR2 Fc, titrated BPC1821, detection with biotinylated B7-1 Fc (1 ug/mL) and ExtrAvidin peroxidase; x axis is dilution factor
T2 construct: Bought reagent; also called biotinylated B7-1; Fc part of the bought chimera not given
T2 sequence (looked up): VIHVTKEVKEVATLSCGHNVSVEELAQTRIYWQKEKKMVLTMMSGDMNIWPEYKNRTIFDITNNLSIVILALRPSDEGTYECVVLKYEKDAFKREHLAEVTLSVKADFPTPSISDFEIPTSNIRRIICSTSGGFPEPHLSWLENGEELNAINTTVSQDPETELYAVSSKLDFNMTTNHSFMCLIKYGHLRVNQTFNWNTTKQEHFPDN

[3] = biological target: T3, human VEGF165 (human, UniProt P15692-4 27-191); experiment: bridging ELISA: coated human VEGF165, titrated BPC1824, detection with biotinylated B7-1 Fc and ExtrAvidin peroxidase
T3 construct: also called VEGF (R&D Systems, Cat No: 293-VE-050); human VEGF165 (in-house material)
T3 sequence (looked up): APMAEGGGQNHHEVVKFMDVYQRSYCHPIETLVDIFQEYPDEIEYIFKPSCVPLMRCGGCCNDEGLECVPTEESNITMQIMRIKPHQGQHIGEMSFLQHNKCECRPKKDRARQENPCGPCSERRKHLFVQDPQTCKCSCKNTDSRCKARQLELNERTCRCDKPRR

T1 sequence (P35968 20-764, change not shown): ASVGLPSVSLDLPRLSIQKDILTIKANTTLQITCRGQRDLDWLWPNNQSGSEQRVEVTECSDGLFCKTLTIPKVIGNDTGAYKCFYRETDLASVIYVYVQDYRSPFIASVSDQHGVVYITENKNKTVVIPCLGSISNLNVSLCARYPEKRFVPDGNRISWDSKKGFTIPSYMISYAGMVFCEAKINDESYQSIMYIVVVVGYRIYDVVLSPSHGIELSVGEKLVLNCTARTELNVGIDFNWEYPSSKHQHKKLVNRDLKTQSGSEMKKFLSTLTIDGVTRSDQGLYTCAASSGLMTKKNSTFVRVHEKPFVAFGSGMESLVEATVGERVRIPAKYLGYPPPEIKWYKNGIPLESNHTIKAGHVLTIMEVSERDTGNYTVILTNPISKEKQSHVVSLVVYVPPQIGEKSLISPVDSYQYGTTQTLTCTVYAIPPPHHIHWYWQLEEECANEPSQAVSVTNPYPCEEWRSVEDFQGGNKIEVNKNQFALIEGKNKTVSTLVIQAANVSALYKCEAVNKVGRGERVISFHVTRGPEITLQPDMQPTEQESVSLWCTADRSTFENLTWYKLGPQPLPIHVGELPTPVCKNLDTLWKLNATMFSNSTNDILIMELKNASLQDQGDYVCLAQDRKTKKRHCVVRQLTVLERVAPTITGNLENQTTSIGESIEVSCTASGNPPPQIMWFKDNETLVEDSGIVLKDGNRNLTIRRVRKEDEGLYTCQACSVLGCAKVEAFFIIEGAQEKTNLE

B1: BPC1821 (CTLA4-Ig fused to anti-VEGFR2 adnectin CT01 via a GS linker) (Fc fusion)
chain: [sequence of about 350 residues with a human IgG1 Fc not given]GSEVVAATPTSLLISWRHPHFPTRYYRITYGETGGNSPVQEFTVPLQPPTATISGLKPGVDYTITVYAVTDGRNGRLLSIPISINYRT
notes: also called bispecific BPC1821
binding result [1]: binds | binding result [2]: binds

B2: BPC1824 (CTLA4-Ig-anti-IL-13 dAb fusion) (Fc fusion)
chain: [sequence of about 350 residues with a human IgG1 Fc not given]GSGVQLLESGGGLVQPGGSLRLSCAASGFVFPWYDMGWVRQAPGKGLEWVSSIDWHGKITYYADSVKGRFTISRDNSKNTLYLQMNSLRAEDTAVYYCATAEDEPGYDYWGQGTLVTVSS
notes: Negative control of the VEGF/B7-1 bridging ELISA
binding result [3]: no binding
